Sequences with one replicate were seen in a single cluster, so their values are uncertain.

The data set concerns ATP. As to the kind of experiment: switch fluorescence ratio, 500 uM ATP over buffer (Cy3 cluster intensity, sum of 5 cycles each) (fold (ratio)); higher = stronger signal-on switching upon ATP binding; sequences stand for … in TCGTCGGCAGCGTCAGATGTGTATAAGAGACAGTTTTTTTTTTTTTTTTTTTTTTTTT…TC. Conditions: aptamer strand: ATP DNA aptamer (quencher-CACCTGGGGGAGTATTGCGGAGGAAGG + anchor), 100 nM annealed; ATP concentration: 500 uM; one replicate. The procedure, abridged: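 Switching-strand clusters labelled with Cy3 on a modified Illumina MiSeq flow-cell were annealed to 100 nM quencher-labelled ATP aptamer, imaged in selection buffer, and re-imaged after 15 min with 500 uM ATP at 22 °C. This was done over five cycles with NaOH stripping and re-annealing in between. The fluorescence ratio is summed target-cycle over summed buffer-cycle Cy3 intensity per cluster, averaged per switch-domain sequence, excluding clusters outside 100-1000 RFU.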
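Further: ATP exposure 15 min at 22 °C before imaging.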

Consider TGACTTCTTA, for which the switch fluorescence ratio was found to be 0.97.

Turning to TTCATTCGAC, the switch fluorescence ratio was determined as 1.04.

Turning to TCCCCTATAC, the switch fluorescence ratio worked out at 2.39.

With ATAATCGTCT, the switch fluorescence ratio worked out at 1.09.

Consider TGGTGCGCTG, for which the switch fluorescence ratio is 0.956.

Regarding TATTCTGGCC, the switch fluorescence ratio was found to be 1.03.

With TGGCCCAGAT, the switch fluorescence ratio amounted to 0.994.

On to AGTGGCTGCG, for which the switch fluorescence ratio was determined as 1.02.

Turning to AGAATGGGGC, the switch fluorescence ratio turned out to be 0.993.

With ACTAGCTGGT, the switch fluorescence ratio is 0.972.

For AGTCCCTAGA, the switch fluorescence ratio was 1.06.

In the case of GGACGGGCAA, the switch fluorescence ratio stood at 1.07.

With TCAGAGCAAG, the switch fluorescence ratio stood at 3.47.

GCGAGTATAT: the switch fluorescence ratio is 1.01.

On to TCACACATTA, for which the switch fluorescence ratio amounted to 0.999.

For ATAGCCGCAA, the switch fluorescence ratio stood at 5.46.

TGTATCATCT: the switch fluorescence ratio was 1.01.

Turning to TCATTCCGCG, the switch fluorescence ratio is 2.4.

With ACATAGGATG, the switch fluorescence ratio was determined as 0.985.

In the case of TATACTTGAA, the switch fluorescence ratio worked out at 0.976.

With TTGACGGCGG, the switch fluorescence ratio is 1.

Take CGTCTTGGGG: the switch fluorescence ratio was 0.977.

Consider TTACAATGT, for which the switch fluorescence ratio was determined as 1.48.

GCTGATTAAG: the switch fluorescence ratio amounted to 0.993.

Turning to CGCAGCAAAG, the switch fluorescence ratio was found to be 3.31.

With ATGTGATTTT, the switch fluorescence ratio is 1.02.

For ACTTGCCGCT, the switch fluorescence ratio was 1.09.

With CCGAATTAGA, the switch fluorescence ratio came to 1.11.

Regarding GGGCCGAGTG, the switch fluorescence ratio was found to be 0.947.

For the sequence TTAGAGTTGG, the switch fluorescence ratio came to 1.01.

For TGATGAGAA, the switch fluorescence ratio turned out to be 0.991.

With CATGCAGGAC, the switch fluorescence ratio turned out to be 2.29.

Take AACGCATTAT: the switch fluorescence ratio was 2.44.

As for AATGGATCGG, the switch fluorescence ratio is 0.981.

As for GAGGTCAAAT, the switch fluorescence ratio was found to be 0.95.

CGTCATGTTC: the switch fluorescence ratio was determined as 0.997.

TTCTCCTGGG: the switch fluorescence ratio is 1.06.

As for GAACTTCATA, the switch fluorescence ratio is 0.967.

Take TATATCAAAT: the switch fluorescence ratio is 0.972.

As to CGTTCAACCA, the switch fluorescence ratio was 1.03.

TGTTTCGCGG: the switch fluorescence ratio was found to be 0.991.

TAGGGAGTGG: the switch fluorescence ratio was found to be 1.01.

For ACTTATAGAT, the switch fluorescence ratio worked out at 1.02.

Regarding CGCAACTTTT, the switch fluorescence ratio was found to be 1.15.

Regarding TTCTGGGCCG, the switch fluorescence ratio worked out at 1.03.

As to TGCATTCCAT, the switch fluorescence ratio is 1.03.

Regarding TCACGGTGAA, the switch fluorescence ratio amounted to 1.06.

Consider ACCAGAGCTG, for which the switch fluorescence ratio turned out to be 1.11.

Take TACACGAACG: the switch fluorescence ratio was determined as 1.34.

As for AAATTTTGAT, the switch fluorescence ratio was found to be 0.997.

Take CAAATGATGA: the switch fluorescence ratio was 0.98.

Consider GCTGATACGA, for which the switch fluorescence ratio worked out at 1.3.

As for TGAGGCACTA, the switch fluorescence ratio was 1.12.

Take TGAGGAGCTT: the switch fluorescence ratio amounted to 0.965.

Take ACAAGCCATC: the switch fluorescence ratio was determined as 1.08.

In the case of TATGCACATT, the switch fluorescence ratio amounted to 1.01.

As for ACTTTTGTTC, the switch fluorescence ratio is 1.05.

As to TGTGAGTTA, the switch fluorescence ratio was 1.03.

Regarding AGGGCCTGGA, the switch fluorescence ratio worked out at 1.

Regarding ATAGTATCAG, the switch fluorescence ratio was 0.944.

For AGCCTAAATA, the switch fluorescence ratio was found to be 1.01.

TTAGGACGAC: the switch fluorescence ratio worked out at 1.05.

Regarding CGATACGCAG, the switch fluorescence ratio amounted to 1.06.

As to CCAACTTAGT, the switch fluorescence ratio was 1.

As for TATTGGAATC, the switch fluorescence ratio was determined as 1.

With ATTTGGGACG, the switch fluorescence ratio came out at 1.01.

Take ATACCACAAT: the switch fluorescence ratio was 1.08.

For the sequence GATAGATTAT, the switch fluorescence ratio came to 1.01.

AATTTGAGGC: the switch fluorescence ratio was found to be 1.02.

On to TCACAATAGG, for which the switch fluorescence ratio was found to be 1.04.

For GCTCGGGTTT, the switch fluorescence ratio is 0.978.

As for CTATGTGTTA, the switch fluorescence ratio was found to be 0.986.

Regarding ATTTACCTTA, the switch fluorescence ratio was 1.02.

As for GATAGCGACA, the switch fluorescence ratio was 1.01.

As to CGAGTAATTC, the switch fluorescence ratio is 1.79.

For the sequence ATTTGGGAC, the switch fluorescence ratio stood at 1.01.

On to CATCTATGGG, for which the switch fluorescence ratio amounted to 0.988.

As for CGCCAAACTT, the switch fluorescence ratio was determined as 1.15.

Regarding CGGTTATAAA, the switch fluorescence ratio stood at 0.97.

Take TTGCTTGACG: the switch fluorescence ratio was found to be 0.99.

CCCTGCAACG: the switch fluorescence ratio amounted to 1.8.

Turning to TATTTATT, the switch fluorescence ratio was 1.04.

For the sequence AGTTCCATGG, the switch fluorescence ratio stood at 1.

Consider AGTACCTGCT, for which the switch fluorescence ratio was 1.03.

Regarding CGCCGCAGCG, the switch fluorescence ratio came to 1.32.

As for GGTCAACGT, the switch fluorescence ratio turned out to be 0.987.

Turning to TGGCTGGGGA, the switch fluorescence ratio was found to be 1.02.

With TATCGGTATG, the switch fluorescence ratio was 0.99.

TTGTCAACGC: the switch fluorescence ratio is 1.06.

Regarding GACATCACGC, the switch fluorescence ratio was 1.37.

In the case of ATTTGTGTTG, the switch fluorescence ratio came out at 0.955.

For the sequence GTAGAAGAAA, the switch fluorescence ratio came to 0.968.

Turning to CCATACGCAG, the switch fluorescence ratio is 2.22.

AATGACTC: the switch fluorescence ratio turned out to be 1.04.

As for GTTTTGCTCA, the switch fluorescence ratio is 0.934.

For the sequence TTTAATAAAT, the switch fluorescence ratio was found to be 1.02.

AAAAGGGACA: the switch fluorescence ratio worked out at 1.

CTCACGTCAT: the switch fluorescence ratio was found to be 1.34.

With CTAGCCCTC, the switch fluorescence ratio is 1.01.

Turning to GTCGGGAGAC, the switch fluorescence ratio was determined as 1.44.

Turning to AGTTGATCGC, the switch fluorescence ratio was determined as 0.933.

Take AATTGCTTAC: the switch fluorescence ratio came out at 1.18.

Turning to CACTCGCGGA, the switch fluorescence ratio is 1.05.

As for GGGCTATCAG, the switch fluorescence ratio was found to be 1.

With CTGTAGACTC, the switch fluorescence ratio was found to be 1.19.

Take GCGCACGAAA: the switch fluorescence ratio was determined as 1.24.

For the sequence ATACGCCTAA, the switch fluorescence ratio is 1.05.

Turning to TAGAGTATGT, the switch fluorescence ratio was 0.981.

For CGAGCAGATT, the switch fluorescence ratio came to 1.16.

Consider GCTGCCTTAT, for which the switch fluorescence ratio was found to be 1.02.

Turning to GGCATCATAG, the switch fluorescence ratio came out at 0.996.

For the sequence TCCTGCAGAT, the switch fluorescence ratio is 1.2.

Consider ATTCCTCCAA, for which the switch fluorescence ratio is 2.39.

Turning to GAGGGTATGA, the switch fluorescence ratio amounted to 0.99.

For the sequence CCGGGTAAAT, the switch fluorescence ratio amounted to 1.07.

Consider GATTAATCGG, for which the switch fluorescence ratio worked out at 0.981.

On to CGCTGAGTGT, for which the switch fluorescence ratio amounted to 1.05.

For ACATTAATTT, the switch fluorescence ratio is 1.

Consider TAATAGTTTC, for which the switch fluorescence ratio was determined as 0.998.

For AGTTTACGGG, the switch fluorescence ratio was 1.04.

The values are drawn from the supplement of paper PMC10126150.
